# Laboratory results from the supplement of paper PMC11417369.
# ± gives the standard deviation of the averaged measurements. The list shows a part of the results.
# System: PfAP2-G AP2 domain (GST-tagged)
# Assay: gcPBM binding intensity (ln(normalized median fluorescence intensity)); higher = stronger DNA binding
# How it was run: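 Binding intensity values are the highest Masliner-normalised natural-log median intensity among replicate spots of either probe orientation. The binding step lasted 1 h in 1× PBS with 1% milk, 0.2 mg/ml BSA, 0.5% salmon testes DNA and 0.03% Triton X-100, using GST-tagged P. falciparum DNA-binding domains expressed in E. coli on an Agilent 4 × 180k array of primer-extended double-stranded 36-bp intergenic genomic probes plus negative controls. Alexa488 anti-GST antibody and a 488 nm scan detected bound protein.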
row,Sequence,gcPBM binding intensity (ln)
1,ATATATATATATAGTGCACACATATAAAATATATAT [CACACA_site8884],10.6 ± 0.83
2,ATCTGTCGACAGGACAGTACACAGTAGCCAGTAACT [XGTACX_site2001],11 ± 0.52
3,ATCCTACTATGTTATACACACAATTACTTTTTTCTC [CACACA_site3712],10.1 ± 0.12
4,ATATGTAAAACTTCAAAAAAATATATTTTATGACGA [GTGCAC_negctrl_site324],9.76 ± 0.11
5,TTACAACAGAATGGTATTTTTTTATTTTAAAGAAAA [TGCATGCA_negctrl_site230],9.85 ± 0.014
6,AATATTTATGTGAAGACACACAACTGTTTATTATAT [CACACA_site3447],10.02 ± 0.049
7,ATATTAGAAATATGAATAGAAAGAATATATAAGTAT [CACACA_negctrl_site682],9.76 ± 0.37
8,ATTCTACACCCACATACACACATATATATATATATA [CACACA_site3426],10.3 ± 0.23
9,TGTTCAAATTTATTCGATCTTTATATTTAATAAAAC [CACACA_negctrl_site781],9.76 ± 0.071
10,TTTTTTTTTTTTTGGTGTACTTTTTTTAGAACGCAA [XGTACX_site4207],11.6 ± 1.2
11,AAAAATGAAAGGTGTACACATACAAACATAGAAAGA [CACACA_site5020],11.7 ± 0.94
12,AAAATTTATATAGGCACACAAATAAATTAATACATA [CACACA_site1418],10.2 ± 0.26
13,TTTTTTCTTTCTTTCAAACACACATTAATTTTATTC [CACACA_site2733],9.86 ± 0.21
14,ATTCAGTTCTATAATACACACATATATTGACATTAT [CACACA_site7309],10.1 ± 0.11
15,ATATTCTTCTAAAGGCGTACATCTACATTTATGAAA [XGTACX_site2145],11.4 ± 0.96
16,GTTAGCTCGTTCGGAGCACACACATATATATATATA [CACACA_site8595],10.3 ± 0.37
17,AGATACTTTCCTCAAACACACAAAACTATACAACAA [CACACA_site1474],10.3 ± 0.32
18,TTTGATGGTACACGTACACACCTTGCAAATATTTTT [CACACA_site4645],11.8 ± 1
19,TGAAAGAACCTGATTACACACATAAATTATATATAT [CACACA_site26],9.8 ± 0.11
20,TGTATGTTGTAAAATTGTACATATATATTATATTTA [XGTACX_site4883],11 ± 0.33
21,ATGAATATAATAAAGAAACACACGTATACATAATGA [CACACA_site1355],10.3 ± 0.11
22,AAAAGATAATTATGCACACACACACCCAGACACAAC [CACACA_site5428],10.6 ± 0.53

row,Sequence,gcPBM binding intensity (ln)
1,AATTATATTCTATTCACACATATTCCAACCTCTTTT [CACACA_site4670],10.02 ± 0.021
2,TGTATTCATACATGCACACGTACATATTTAAATATA [CACACA_site3926],11.3 ± 0.7
3,AGTTCTTCGTACCAAAAAACGGCACGCATATGTATA [TGCATGCA_negctrl_site469],10.6 ± 0.38
4,TCTATTCAAAATAAAAGTACTAGCATGTGAATTGTT [XGTACX_site5530],11.2 ± 0.76
5,TACAAGTTTTTAAAGTGTACCAAAAAAAAAGAATAA [XGTACX_site979],11.3 ± 0.76
6,TTCATTTATTTACTTACACACTTTATATATGTGGTT [CACACA_site4901],10 ± 0.15
7,TATTTCAAAAAAAAAAAAAATAAAAAACAACAACAA [CACACA_negctrl_site893],9.96 ± 0.35
8,AAAAAAAATTATATATGTACTTATTAATCCTTATAT [XGTACX_site1389],11.3 ± 0.85
9,ATTTATATATCGCCCACACACATGTGATTATTTATA [CACACA_site6905],10.34 ± 0.035
10,TACTACTATCTATATTGTACAAAAGGTGCCTACAAA [XGTACX_site4267],10.9 ± 0.39
11,ATATATAAAATATACACACATACTGTTCATTTAAAG [CACACA_site4169],9.935 ± 0.049
12,AAGAGAAATTATAACATGTGAAATGTATTATATATA [TGCATGCA_negctrl_site254],9.58 ± 0.37
13,ATTTATATATAATATACACACATATAATCCACATAT [CACACA_site699],10.15 ± 0.035
14,AAAAATAAAAAAATGACACACATATATATATATATA [CACACA_site2307],10.1 ± 0.35
15,TATCTCTTATTTTATTGTACTTAACTATGCTATAAT [XGTACX_site4904],11.3 ± 0.66
16,TAAGTATAATATTGATGTACATATAATAACTTGTAT [XGTACX_site417],11.2 ± 0.59
17,CATATGATATGTTATACACACACGTATATATGAATT [CACACA_site3446],10.2 ± 0.071
18,TAGTTAACAAATAATGCACACAAATGGATAAAATTA [CACACA_site9240],10.17 ± 0.057
19,ATTCAAATTGTAGAAACACACAAAAACTTAACATAT [CACACA_site2617],10.06 ± 0.014
20,ATGAACATACAATATACACACATATATATTTATATT [CACACA_site4609],9.96 ± 0.057
21,AAGGGAAAATTAAGGTTGCACTAAAAATATATCTTT [GTGCAC_site9608],9.9 ± 0.014
22,AGATACGATTATATGCGTTCAATATACCAAATAATT [TGCATGCA_negctrl_site501],10.1 ± 0.2
